Source: PubChem BioAssay AID1645887 (National Center for Advancing Translational Sciences (NCATS), 2021)
Values joined by “and” are separate entries in the source; they are usually repeats but may differ in a detail not shown here. Equal values may be shown once. Hit rate of the full screen: of about 16,000 compounds, about 40 (0.2%) were called active. Another 1% or so got no clear call; they are omitted. Calls come from the whole dose curve; as a rule, active = well fitted activation curve with a large enough effect; inconclusive = small, poorly fitted or top-dose-only effect, or another doubt; inactive = no such curve, though single readings can be large or run the other way. The list shows a part of the results. Residues, ends and D or L forms follow the SMILES beside them.

molecular target: Rap guanine nucleotide exchange factor 4 (Homo sapiens) (UniProt Q8WZA2); test: Validation qHTS for agonist of cAMP-regulated guanine nucleotide exchange factor 4 (EPAC2); settings: EPAC2 Rap1B BODIPY-GDP exchange, fluorescence; activation: active compounds read high;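 note: exchange makes BODIPY-GDP fluorescence drop when released from Rap1B; series mostly up to about 150 µM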
Chain of UniProt Q8WZA2 (Q8WZA2 whole entry, looked up): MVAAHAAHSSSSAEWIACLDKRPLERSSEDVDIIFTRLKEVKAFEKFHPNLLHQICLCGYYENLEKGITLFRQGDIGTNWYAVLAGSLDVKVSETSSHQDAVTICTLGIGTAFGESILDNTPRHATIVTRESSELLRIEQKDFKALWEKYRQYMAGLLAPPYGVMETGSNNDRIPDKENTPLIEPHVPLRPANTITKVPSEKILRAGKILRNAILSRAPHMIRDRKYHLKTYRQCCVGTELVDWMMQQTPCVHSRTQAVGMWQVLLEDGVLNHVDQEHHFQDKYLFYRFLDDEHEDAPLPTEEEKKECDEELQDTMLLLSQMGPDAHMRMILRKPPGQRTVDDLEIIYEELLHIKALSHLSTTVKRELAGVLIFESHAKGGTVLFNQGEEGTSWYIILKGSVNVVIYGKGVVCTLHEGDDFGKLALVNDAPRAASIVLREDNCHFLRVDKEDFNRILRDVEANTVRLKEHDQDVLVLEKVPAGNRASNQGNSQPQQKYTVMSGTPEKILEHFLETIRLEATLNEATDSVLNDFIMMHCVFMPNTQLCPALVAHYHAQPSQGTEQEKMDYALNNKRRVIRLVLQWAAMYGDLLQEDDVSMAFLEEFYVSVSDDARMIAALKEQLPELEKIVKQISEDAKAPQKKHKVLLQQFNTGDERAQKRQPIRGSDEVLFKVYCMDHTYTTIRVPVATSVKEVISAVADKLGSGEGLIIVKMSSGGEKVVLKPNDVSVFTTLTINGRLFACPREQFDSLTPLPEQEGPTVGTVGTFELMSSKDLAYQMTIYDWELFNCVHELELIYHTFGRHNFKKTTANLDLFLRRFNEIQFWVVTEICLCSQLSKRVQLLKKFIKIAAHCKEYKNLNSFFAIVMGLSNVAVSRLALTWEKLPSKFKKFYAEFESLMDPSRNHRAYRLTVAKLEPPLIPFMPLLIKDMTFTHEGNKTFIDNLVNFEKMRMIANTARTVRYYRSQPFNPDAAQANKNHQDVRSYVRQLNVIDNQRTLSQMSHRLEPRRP
Summary of the method: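 Fluorescent exchange assay: 100 nM EPAC2 with 250 nM RAP1B-BODIPY-GDP and 50 uM GDP; compound added, 5 min at room temperature, then read (ex 480/em 540 nm) every 5 min for 30 min. Normalized to 6.5 mM cAMP agonist control.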
% is set by controls: 0 for no effect and ±100 for the full control effect.

activation, inactive:
CN1CCN(c2ncc3nc(-c4cccs4)c(=O)n(-c4ccccc4)c3n2)CC1 18%
O=c1c(-c2cccc(Cl)c2)nc2cncnc2n1Cc1ccccc1 0.466%
O=C1C(Nc2ccccc2)=CC(=O)c2ncccc21 -9.69%
CC(=O)NCCNc1ncncc1-c1ccccc1C 1.68%
CCOC(=O)C[C@H]1c2ccccc2S(=O)(=O)N1Cc1ccc(Cl)cc1 -16.7%
CCCCCCCCCCCC(=O)[O][Sn]([CH2]CCC)([CH2]CCC)[O]C(=O)CCCCCCCCCCC -9.87%
COCCn1c(=O)c(CCc2ccccc2)nc2cnc(N3CCNCC3)nc21 -17.7%
CC(C)(C)c1nnc(NS(=O)(=O)c2ccccc2)s1 -0.0702%
CCOC(=O)C[n+]1cccc(Br)c1 -19.4%
CCCCCCCNS(=O)(=O)c1cccc2c(Cl)cccc12 -22.8%
Cn1c(=O)c(-c2cc(F)cc(F)c2)nc2cncnc21 -11.2%
Cc1cc(=O)c(C(=O)N[C@@H](C(=O)N[C@@H]2C(=O)N3C(C(=O)O)=C(CSc4nnnn4C)CS[C@H]23)c2ccc(O)cc2)c[nH]1 7.25%
CCCCc1oc2ccccc2c1C(=O)c1cc(I)c(OCCN(CC)CC)c(I)c1 -14.8% [middle of 5 runs]
CC(C)[C@H]1COCCS(=O)(=O)N1Cc1cccc(Cl)c1 -26%
CN(Cc1cnc2nc(N)nc(N)c2n1)c1ccc(C(=O)NC(CCC(=O)O)C(=O)O)cc1 (stereo not given) -8.12%
COc1cccc(Cn2c(=O)cnc3cnc(OC)nc32)c1 3.83%
O=C(O)c1cccnc1 -15.9%
CN1CCN(C2=Nc3ccccc3Cc3ccccc32)CC1 -13.1%
CCCCC/C=C\C/C=C\CCCCCCCC(=O)O -40.4% and -6.78%
Cc1cccc(N(C)C(=S)Oc2ccc3ccccc3c2)c1 13.4% and 0.98%
CC(C)N1C[C@@H](NCc2ccccc2O)C[C@H]1C(=O)N1CCN(c2cccc(C(F)(F)F)c2)CC1 -24.8%
CC1(C)SC2C(NC(=O)C(N)c3ccccc3)C(=O)N2C1C(=O)O (stereo not given) -4.06%
C=CCNC1=C2C[C@@H](C)C[C@H](OC)[C@H](O)[C@@H](C)/C=C(\C)[C@H](OC(N)=O)[C@@H](OC)/C=C\C=C(/C)C(=O)NC(=CC1=O)C2=O -6.03%
O=S1(=O)CCO[C@H]2Cc3ccccc3[C@H]2N1Cc1cccc(F)c1 -14.5%
Cc1cc(=O)cc2oc3cc(N)c(-c4c(C)cc(O)cc4O)c(C)c3nc1-2 -10.3%
N[C@@H](COP(=O)(O)O)C(=O)O -4.6% [middle of 4 runs]
CCCCCC(=O)O[C@H](CC(=O)O)C[N+](C)(C)C -14.7%
Cc1cccc(-c2cc(=O)c3cc(Br)ccc3o2)c1 5.32%
O=S(=O)(O)c1ccc(Nc2ncnc3c2ncn3[C@@H]2O[C@H](CO)[C@@H](O)[C@H]2O)cc1 0.857%
CCCCc1cc2c(=O)c(C(=O)OC)c[nH]c2cc1OCc1ccccc1 6.12%
O=c1[nH]c(=O)n([C@H]2C[C@H](O)[C@@H](CO)O2)cc1I -3.95%
COc1ccc(CNc2ncnc3ccc(-c4ccoc4)cc23)c(OC)c1 -11.2%
COc1ccccc1N1CCN(c2nc(CNC(=O)c3ccc(C)c(C)c3)nc3ccccc23)CC1 9.3%
CS(C)(=O)=O -9.51%
CC(=O)SCC(CC(=O)c1ccc(C)cc1)C(=O)O (stereo not given) 9.21%
N#Cc1cccc(NC(=O)N2CCCC3(CCN(C(=O)c4cnccn4)CC3)C2)c1 -11.2%
CCNc1ncc2nc(C)c(=O)n(C)c2n1 -14.1%
COCc1ccc(CN2CCOc3c(cc(-c4ccc(SC)cc4)cc3OC)C2)o1 0.901%
O=C(O)C(Oc1ccc2ccc(=O)oc2c1)c1ccccc1 (stereo not given) -5.81%
NCCCCC(N)C(=O)NC(Cc1ccc(O)cc1)C(=O)NC(CCCCN)C(=O)O (stereo not drawn) (H-Lys-Tyr-Lys-OH; configuration not given here) -16.2%
Fc1ccc(Nc2nc(-c3cccnc3)nc3ccccc23)cc1 -22.8%
O=C(NC[C@H](O)c1ccccc1)c1ccccc1 -6.42%
C#C[C@]1(O)CC[C@H]2[C@@H]3CCC4=Cc5oncc5C[C@]4(C)[C@H]3CC[C@@]21C -2.24%
CC(=O)Nc1cc(C(=O)N2CCN(c3ccccc3)CC2C)cc2ncn(CCc3ccccn3)c12 (stereo not given) -15.4%
COc1ccccc1CNc1ncnc2sc(C(=O)N(C)C(C)C)c(C)c12 -16.4%
O=Cc1ccc(N2CCOCC2)cc1 -6.63%
Cn1cccc1C(=O)N1CCC2(CCCN(Cc3ccccc3)C2)CC1 -10.3%
CCOc1ccc(Cc2nccc3cc(OCC)c(OCC)cc23)cc1OCC -7.05% and 8.86%
O=C(Nc1ccc([N+](=O)[O-])cc1Cl)c1cc(Cl)ccc1O -1.8% and -18.2% and -44.2%
CC(C)NC(=O)N1CC2(CCN(C(=O)c3ccco3)CC2)C1 4.69%
CC(=O)c1ccccc1-c1ccc2c(c1)CC(CNC(=O)c1ccnc(Cl)c1)O2 (stereo not given) -11.5%
Cc1ccccc1-c1nc(N2CCOCC2)c2ccccc2n1 -7.21%
COc1ccc(-c2nc3cnc(N4CCN(C)CC4)nc3n(Cc3ccc(F)cc3)c2=O)cc1 -10.3%
Cc1cnc(CNc2ccnc(-c3cccc(NS(C)(=O)=O)c3)n2)cn1 -6%
COc1ccc(CCN(C)CCCOc2ccc(S(=O)(=O)c3[nH]c4ccccc4c3C(C)C)cc2)cc1OC -20.8%
